Measured values from PubChem BioAssay AID588855 (National Center for Advancing Translational Sciences (NCATS), 2011).
Hit rate of the full screen: of about 410,000 compounds, about 5,000 (1.2%) were called active. This list was built around the results that the source calls inconclusive (neither active nor inactive); the mix of calls is not that of the screen. Calls come from the whole dose curve; as a rule, active = well fitted inhibition curve with a large enough effect; inconclusive = small, poorly fitted or top-dose-only effect; inactive = no such curve, though single readings can be large or run the other way. Where the call is inconclusive, the potency comes from a doubtful curve fit. Square brackets hold non-standard residues; d marks the D form. Peptide text beside a SMILES is read from it. * marks the point of attachment. ξ: configuration not given here. ξF = NC(Cc1ccccc1)C(=O)O; Cbz = O=C(OCc1ccccc1)*

Assay: qHTS for Inhibitors of TGF-b; note: nearly all actives have a fitted effect of over 65% in size
Conditions: HepG2 CAGA-GFP TGF-b/SMAD3 reporter, GFP fluorescence, 18 h, TGF-beta stimulated, 500 pg/mL final; series mostly up to 46.1 µM
Method in brief: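 HEPG2 CAGA-GFP cells (1000/well, DMEM with 1% FBS) were pre-incubated 2 h at 37 degrees C, given compound by pin tool, then stimulated with TGF-beta at 500 pg/mL final for 18 h before per-cell GFP fluorescence imaging.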
Potency is the fitted concentration of half-maximal effect; tags give direction and shape of the fitted curve.

**Q.** For `O=c1[nH]c(CN2CCN(c3ccccc3)CC2)nc2scc(-c3ccccc3)c12`, which Potency is on record?
**A.** inactive

**Q.** With `Cc1cnc(NC(=O)Cc2ccccc2F)s1` as the compound, how does the Potency read?
**A.** inconclusive: 6.31 µM [inhibitor, full curve, poor fit]

**Q.** With `C#CCOCCOCCOCCNc1nc(N2CCN(C(=O)CCCCCCCCCCNC(=O)[C@@H](CCSC)n3cc(CCO)nn3)CC2)nc(N2CCN(C(=O)CCCCCCCCCCNC(=O)[C@H](CCC(=O)O)n3cc(CCCCCN)nn3)CC2)n1` as the compound, how does the Potency read?
**A.** inconclusive: 35.5 µM [inhibitor, single point]

**Q.** For `CCOc1cc(C2NC(=S)NC(C)=C2C(=O)Nc2ccc(OC)cc2)ccc1O` (centres undefined), which Potency is on record?
**A.** inactive

**Q.** With `C=Cc1ccc(Cn2c(C(=O)O)c(CNCCc3ccco3)c3ccc(C)cc32)cc1` as the compound, how does the Potency read?
**A.** inconclusive: 22.4 µM [inhibitor, single point]

**Q.** With `Cc1ccc(NC(=O)c2cc(S(=O)(=O)c3ccccc3)ccc2Cl)cc1` as the compound, how does the Potency read?
**A.** inconclusive: 8.91 µM [inhibitor, partial curve]

**Q.** Which Potency does the source give for `O=C(Nc1ccc(S(=O)(=O)NCc2ccco2)cc1)c1ccncc1` here?
**A.** inactive

**Q.** For `C=CCNC(=S)N/N=C(\C)c1ccc(OC)cc1`, which Potency is on record?
**A.** inactive

**Q.** With `S=C(NCCc1ccccn1)Nc1ccc(Cl)cc1Cl` as the compound, how does the Potency read?
**A.** inconclusive: 3.55 µM [inhibitor, single point]

**Q.** With `CCN1CCN(CC(O)COc2ccc(C)c(C)c2)CC1` (centres undefined) as the compound, how does the Potency read?
**A.** inconclusive: 5.01 µM [inhibitor, single point]

**Q.** With `CCC(C(=O)NNC(=O)c1cnccn1)c1ccccc1` (centres undefined) as the compound, how does the Potency read?
**A.** inactive

**Q.** Which Potency does the source give for `C=CCn1c(-c2ccccc2)nc2nc3ccccc3nc21` here?
**A.** inactive

**Q.** For `COc1ccc(N(Cc2cc3ccccc3[nH]c2=O)S(=O)(=O)c2ccc(C)cc2)cc1`, which Potency is on record?
**A.** inactive

**Q.** For `C/C(=N\NC(=O)Cc1ccc(Cl)cc1)c1ccccn1`, which Potency is on record?
**A.** active: 3.98 µM

**Q.** For `COc1ccc(CNCc2ccc(C(=O)O)s2)cc1`, which Potency is on record?
**A.** inconclusive: 17.8 µM [inhibitor, single point]

**Q.** With `CCCCC(=O)N/C(N)=N/c1nc2ccccc2o1` as the compound, how does the Potency read?
**A.** inactive

**Q.** Which Potency does the source give for `O=C(Nc1nc2ccccc2n1CCOc1ccccc1)c1ccco1` here?
**A.** inconclusive: 35.5 µM [inhibitor, single point]

**Q.** Which Potency does the source give for `CC(=O)Nc1nc(-c2cccs2)cs1` here?
**A.** inactive

**Q.** Which Potency does the source give for `Cc1cc(S(=O)(=O)Nc2c(C)nn(C)c2C)c(Cl)cc1Cl` here?
**A.** inactive

**Q.** With `COc1ccc(Nc2ncccc2C(=O)NCc2ccccc2)cc1` as the compound, how does the Potency read?
**A.** inactive

**Q.** For `COc1ccc(S(=O)(=O)NCCSC(C)(C)C)c(Cl)c1Cl`, which Potency is on record?
**A.** inconclusive: 35.5 µM [inhibitor, single point]

**Q.** Which Potency does the source give for `O=C(Nc1ccc(N2CCOCC2)cc1)c1ccc([N+](=O)[O-])o1` here?
**A.** active: 5.62 µM

**Q.** For `COc1ccc(-c2nc(CSCC(=O)N3CCN(c4ccccc4F)CC3)c(C)o2)cc1`, which Potency is on record?
**A.** active: 6.31 µM

**Q.** For `CCCCCCCC[n+]1cccc(C(=O)N(CC)CC)c1`, which Potency is on record?
**A.** inactive

**Q.** For `C[C@H](O)[C@@H]1CN2CCc3c([nH]c4ccccc34)[C@@H]2C[C@@H]1N(C)C(=O)c1ccco1`, which Potency is on record?
**A.** inconclusive: 35.5 µM [inhibitor, single point]

**Q.** Which Potency does the source give for `O=c1c2ccccc2sc2nc(CCl)nn12` here?
**A.** inconclusive: 25.1 µM [inhibitor, single point]

**Q.** With `Clc1ccc(CSc2nnc(CNc3cccc(Cl)c3)o2)cc1` as the compound, how does the Potency read?
**A.** inconclusive: 22.4 µM [inhibitor, single point]

**Q.** For `CC1CC(C)(C)N(C(=O)CSc2ccc(-c3ccc(F)cc3)nn2)c2ccccc21` (centres undefined), which Potency is on record?
**A.** inactive

**Q.** Which Potency does the source give for `CC(C)[C@H](NC(=O)c1ccc(C(C)(C)C)cc1)C(=O)Nc1nnc(C2CC2)s1` here?
**A.** inconclusive: 35.5 µM [inhibitor, single point]

**Q.** With `O=C(CCS(=O)(=O)c1ccc(Br)s1)Nc1cc(C(F)(F)F)cc(C(F)(F)F)c1` as the compound, how does the Potency read?
**A.** inconclusive: 35.5 µM [inhibitor, single point]

**Q.** With `COC(=O)C1=C(C(=O)OC)C(c2cc(Cl)ccc2O)c2sc(=O)[nH]c2S1` (centres undefined) as the compound, how does the Potency read?
**A.** inconclusive: 8.91 µM [inhibitor, partial curve, poor fit]

**Q.** With `CC1CCN(C(=O)c2ccc3c(c2)C(=O)c2ccccc2-3)CC1` as the compound, how does the Potency read?
**A.** inactive

**Q.** With `CCCc1cc(=O)oc2cc(C)cc(OC(C)C(=O)NCCCN3CCOCC3)c12` (centres undefined) as the compound, how does the Potency read?
**A.** inconclusive: 3.55 µM [inhibitor, single point]

**Q.** For `COc1cc2nc(C)sc2cc1SC`, which Potency is on record?
**A.** inactive

**Q.** With `COC(=O)[C@]1(C)N[C@H](c2ccc(-c3ccc(Cl)c(Cl)c3)c(OC)c2)[C@@H]2C(=O)N(C)C(=O)[C@@H]21` as the compound, how does the Potency read?
**A.** inconclusive: 35.5 µM [inhibitor, single point]

**Q.** Which Potency does the source give for `CN(C)S(=O)(=O)c1cccc(NC(=O)CSc2cccc3cccnc23)c1` here?
**A.** inconclusive: 3.55 µM [inhibitor, full curve, poor fit]

**Q.** For `C#CCOCCOCCOCCNc1nc(N2CCN(C(=O)CCCCCCCCCCNC(=O)Cn3cc(C[C@@H](C)O)nn3)CC2)nc(N2CCN(C(=O)CCCCCCCCCCNC(=O)[C@@H]([C@H](C)O)n3cc(C)nn3)CC2)n1`, which Potency is on record?
**A.** inconclusive: 1.12 µM [inhibitor, full curve]

**Q.** With `CCCC(=O)NC(=S)Nc1cccc(NC(=O)c2ccccc2)c1` as the compound, how does the Potency read?
**A.** inactive

**Q.** Which Potency does the source give for `CC(=O)c1cccc(NC(=O)c2oc(=O)c3ccccc3c2-c2ccccc2)c1` here?
**A.** inconclusive: 20 µM [inhibitor, single point]

**Q.** With `COc1ccc(C(=O)C2CCCN(Cc3cccn3-c3nccs3)C2)cc1OC` (centres undefined) as the compound, how does the Potency read?
**A.** inconclusive: 11.2 µM [inhibitor, partial curve, poor fit]

**Q.** For `O=c1[nH]cnc2sc3c(c12)CCCCC3`, which Potency is on record?
**A.** inactive

**Q.** Which Potency does the source give for `Cc1cccc(NC(=O)c2nc[nH]c2C(=O)N[C@H](C)c2ccccc2)c1` here?
**A.** inconclusive: 35.5 µM [inhibitor, single point]

**Q.** Which Potency does the source give for `CSc1nc(N)nc(SCC(=O)Nc2cccc(F)c2)c1C#N` here?
**A.** inconclusive: 31.6 µM [inhibitor, single point]

**Q.** With `Cc1ccc(-c2c(C(=O)NCc3ccc(F)cc3)oc(=O)c3ccccc23)cc1` as the compound, how does the Potency read?
**A.** inconclusive: 3.16 µM [inhibitor, full curve]

**Q.** Which Potency does the source give for `Cc1cc(C(=O)N(C)Cc2c(F)cccc2Cl)c2ccccc2n1` here?
**A.** inactive

**Q.** With `O=C(NCC(c1cccs1)N1CCOCC1)c1cc2ccccc2o1` (centres undefined) as the compound, how does the Potency read?
**A.** inconclusive: 3.16 µM [inhibitor, single point]

**Q.** Which Potency does the source give for `COc1ccc(-c2noc(CCC(=O)N3CCN(c4ccccc4C(F)(F)F)CC3)n2)cc1` here?
**A.** inconclusive: 10 µM [inhibitor, single point]

**Q.** With `COCc1ccc(C(=O)N(C)CC2CCCN(CCc3ccc(Cl)cc3)C2)o1` (centres undefined) as the compound, how does the Potency read?
**A.** inconclusive: 4.47 µM [inhibitor, single point]

**Q.** With `CC1(C)SC(=S)N(/N=C/c2ccccc2O)C1N(O)C(=O)Nc1ccccc1` (centres undefined) as the compound, how does the Potency read?
**A.** inconclusive: 15.8 µM [inhibitor, partial curve, poor fit]

**Q.** Which Potency does the source give for `Cn1nc(C(=O)NCc2ccc(F)cc2)c2c1-c1ccccc1SC2` here?
**A.** inconclusive: 10 µM [inhibitor, single point]

**Q.** For `Cc1ccc2[nH]c(=O)c(CN(C(=O)c3cccs3)c3ccccc3)cc2c1`, which Potency is on record?
**A.** inconclusive: 5.01 µM [inhibitor, single point]

**Q.** With `COc1ccc(CCNC(=O)C2CCCN2C(=O)Nc2ccc(F)cc2)cc1OC` (centres undefined) as the compound, how does the Potency read?
**A.** inactive

**Q.** For `CCN(CC)S(=O)(=O)c1ccc(N/N=C/c2ccc(O)cc2O)nc1`, which Potency is on record?
**A.** inactive

**Q.** For `Cc1ccc(NC(=O)c2ncn(CCCN[C@H](C)c3cccc4ccccc34)n2)cc1C`, which Potency is on record?
**A.** inconclusive: 25.1 µM [inhibitor, single point]

**Q.** Which Potency does the source give for `CCc1ccc(NSc2ccccc2[N+](=O)[O-])cc1` here?
**A.** inconclusive: 11.2 µM [inhibitor, single point]

**Q.** For `CC(C)OCCCn1c(SC(C)C(=O)NC2CC2)nc2ccccc2c1=O` (centres undefined), which Potency is on record?
**A.** inactive

**Q.** For `CCN(CC)C(=O)c1cc([N+](=O)[O-])cc2c1-c1ccc([N+](=O)[O-])cc1C2=C(C#N)C#N`, which Potency is on record?
**A.** inconclusive: 22.4 µM [inhibitor, single point]

**Q.** With `CCC(c1nnnn1Cc1ccc2c(c1)OCO2)N1CCN(c2ccc(F)cc2)CC1` (centres undefined) as the compound, how does the Potency read?
**A.** inactive

**Q.** With `Cc1cccc(OCC(=O)N(C)CCc2ccccn2)c1` as the compound, how does the Potency read?
**A.** inconclusive: 0.631 µM [inhibitor, partial curve, poor fit]

**Q.** With `CCOC(=O)C(Cc1ccccc1)NC(=O)CNC(=O)CNC(=O)OCc1ccccc1` (stereo not drawn) (Cbz-Gly-Gly-[ξF]-OEt) as the compound, how does the Potency read?
**A.** inconclusive: 35.5 µM [inhibitor, single point]

**Q.** For `C=CCn1c(SCC(O)Cn2c3ccccc3c3ccccc32)nnc1-c1ccco1` (centres undefined), which Potency is on record?
**A.** inconclusive: 25.1 µM [inhibitor, single point]

**Q.** With `COc1ccc(N=C(NN)c2ccc3ccccc3n2)cc1` as the compound, how does the Potency read?
**A.** inconclusive: 6.31 µM [inhibitor, partial curve, poor fit]

**Q.** For `COc1ccc(OC)c(NC(=S)NCCC(c2ccccc2)c2ccccc2)c1`, which Potency is on record?
**A.** inactive

**Q.** For `O=C(NC(=S)Nc1ccccc1N1CCN(C(=O)c2ccccc2)CC1)c1ccccc1F`, which Potency is on record?
**A.** inconclusive: 22.4 µM [inhibitor, single point]

**Q.** With `COc1ccccc1N(CC(O)Cn1c2ccccc2c2ccccc21)S(=O)(=O)c1ccccc1` (centres undefined) as the compound, how does the Potency read?
**A.** inconclusive: 20 µM [inhibitor, single point]

**Q.** For `Cc1noc(C)c1-c1ccc2nc[nH]c(=O)c2c1`, which Potency is on record?
**A.** inconclusive: 0.631 µM [inhibitor, full curve, poor fit]

**Q.** For `O=C(Cn1cnc2onc(-c3ccc(F)cc3)c2c1=O)Nc1cccc(C(F)(F)F)c1`, which Potency is on record?
**A.** inconclusive: 22.4 µM [inhibitor, single point]

**Q.** Which Potency does the source give for `CS(=O)(=O)N(CC(=O)NCCSCc1ccccc1)c1cc(C(F)(F)F)ccc1Cl` here?
**A.** inconclusive: 35.5 µM [inhibitor, single point]

**Q.** With `CCOC(=O)c1nnn(CC(=O)Nc2cc(C)cc(C)c2)c1C(=O)OCC` as the compound, how does the Potency read?
**A.** inconclusive: 0.562 µM [inhibitor, full curve, poor fit]
